Assay results from publication PMC4336329 (PLoS ONE, 2015).
Screen size: about 310,000 compounds; about 2,200 (0.71%) showed an effect of 50% or more. Effects have a minus sign here. The list shows a part of the results.

target: human ether-à-go-go-related gene (hERG) potassium channel (human, UniProt Q12809); experiment: primary screen, population patch clamp on CHO cells stably expressing hERG
Sequence (Q12809 whole entry, looked up): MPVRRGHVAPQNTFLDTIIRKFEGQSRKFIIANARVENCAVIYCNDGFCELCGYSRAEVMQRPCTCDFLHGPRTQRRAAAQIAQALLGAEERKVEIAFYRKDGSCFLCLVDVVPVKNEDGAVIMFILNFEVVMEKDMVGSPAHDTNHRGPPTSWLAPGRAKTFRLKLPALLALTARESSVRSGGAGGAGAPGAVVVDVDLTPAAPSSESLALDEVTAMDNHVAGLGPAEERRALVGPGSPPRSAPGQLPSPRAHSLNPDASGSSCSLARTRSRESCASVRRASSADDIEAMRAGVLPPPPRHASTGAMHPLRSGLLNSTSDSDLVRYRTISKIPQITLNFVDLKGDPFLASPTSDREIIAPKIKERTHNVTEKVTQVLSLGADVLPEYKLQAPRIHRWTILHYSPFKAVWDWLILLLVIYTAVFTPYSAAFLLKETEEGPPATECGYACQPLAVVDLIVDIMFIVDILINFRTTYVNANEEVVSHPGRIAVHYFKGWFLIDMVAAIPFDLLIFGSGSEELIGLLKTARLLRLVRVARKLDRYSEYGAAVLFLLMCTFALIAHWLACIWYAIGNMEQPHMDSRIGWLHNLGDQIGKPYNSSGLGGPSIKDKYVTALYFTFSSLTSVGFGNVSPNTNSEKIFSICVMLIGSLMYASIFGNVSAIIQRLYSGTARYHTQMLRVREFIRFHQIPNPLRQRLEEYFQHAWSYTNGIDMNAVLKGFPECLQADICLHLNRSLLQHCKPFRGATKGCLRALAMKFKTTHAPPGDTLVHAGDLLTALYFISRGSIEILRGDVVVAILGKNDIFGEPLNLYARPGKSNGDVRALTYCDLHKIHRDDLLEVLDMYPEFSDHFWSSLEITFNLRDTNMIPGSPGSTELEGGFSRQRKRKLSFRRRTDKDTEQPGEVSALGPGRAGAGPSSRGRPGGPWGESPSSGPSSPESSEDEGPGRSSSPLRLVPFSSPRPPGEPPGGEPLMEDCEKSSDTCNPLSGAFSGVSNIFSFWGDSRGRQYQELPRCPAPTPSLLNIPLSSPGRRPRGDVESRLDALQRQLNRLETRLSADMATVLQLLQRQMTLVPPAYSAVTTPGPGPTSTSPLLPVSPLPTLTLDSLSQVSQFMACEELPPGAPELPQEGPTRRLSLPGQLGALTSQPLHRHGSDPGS

| SMILES | hERG current change (%, negative = inhibition) at 1uM |
| --- | --- |
| CCCCn1c(O)c(N=Nc2ccccn2)c2ccccc21 | 12.5% |
| O=C(NCc1ccoc1)c1ccc(NC(=O)c2ccccc2Cl)cc1 | 10.4% |
| Cc1ccc(C(=O)N(Cc2nnc(-c3ccc(Cl)cc3)o2)C2CC2)o1 | -3.42% |
| Cc1ccc(CSC2=NCCN2C(=O)C(C)Oc2ccccc2)cc1 (stereo not shown) | 7.59% |
| O=C(/C=N/O)Nc1ccccc1C(=O)O | -13.8% |
| CC1CCCN(C(=O)COC(=O)c2n[nH]c3ccccc23)C1 (stereo not shown) | 0.277% |
| N#Cc1c(C(F)(F)F)cc(-c2ccc(Cl)cc2)nc1SCC(=O)O | 4.99% |
| O=C(CC(C(=O)O)c1c[nH]c2ccccc12)c1ccccc1 (stereo not shown) | 9.56% |
| Cc1cc(NC(=O)C2C3C(=O)N(CC4CCCO4)C(C(=O)NC(C)(C)C)C34C=CC2(C)O4)no1 (stereo not shown) | 11.2% |
| CCc1cccc(C)c1NC(=O)COC(=O)c1c2c(nc3ccccc13)/C(=C\c1cccs1)CCC2 | 13.9% |
| CCc1cc(=O)oc2c(CNC(Cc3ccccc3)C(=O)O)c(O)ccc12 (stereo not shown) | 18.9% |
| O=C(CN1CCN(c2ccccc2)CC1)Nc1c(C(=O)C2CC2)oc2ccccc12 | 8.52% |
| O=C(OCc1nc2ccsc2c(=O)[nH]1)c1ccc(Cl)s1 | 4.2% |
| O=C(CCn1c(=O)oc2ccccc21)N1CCc2ccccc21 | 15.9% |
| Cc1nnsc1C(=O)NC(=O)Nc1ccc(F)c(Cl)c1 | 11% |
| CN1/C(=C\C=O)C(C)(C)c2ccccc21 | 3.65% |
| CC(c1ccco1)N(C(=O)CSc1ccc(Br)cc1)c1ccccn1 (stereo not shown) | 14.9% |
| Cc1ccc(C(O)CN2C3=NCCN3c3ccccc32)cc1.Cl (stereo not shown) | -40.9% |
| COc1ccc(C(=O)C2CCCN(Cc3cccn3-c3ccccn3)C2)c(C)c1 (stereo not shown) | -84.8% |
| O=C(CSc1nc2[nH]ncc2c(=O)[nH]1)Nc1ccc(F)cc1 | 13.3% |
| CCn1c(=O)c2cc(C(=O)Nc3cccc(C(C)=O)c3)sc2c2ccccc21 | 9.6% |
| Cc1ccc2nc(-c3cccc(-c4cccc(Cl)c4)c3)c(NCc3ccccc3)n2c1.O=C(O)C(F)(F)F | 17.9% |

| SMILES | hERG current change (%, negative = inhibition) at 1uM |
| --- | --- |
| CN(C)CC(C)(C)CNS(=O)(=O)c1ccc(OC(F)(F)F)cc1.Cl | 8.65% |
| O=C(COC(=O)c1ccco1)NCC1CCCO1 (stereo not shown) | -0.29% |
| C/C(=N\NC(=O)Cc1ccccc1)c1ccc(Br)s1 | 15.5% |
| CCCCN(C(=O)CSc1cc(C)c2ccc(OC)cc2n1)c1c(N)n(Cc2ccccc2)c(=O)[nH]c1=O | 10.7% |
| CCOc1ccccc1N(C)C(=O)c1nn(-c2ccc(OC)cc2OC)c(=O)c2ccccc12 | 4.9% |
| CCOC(=O)CNS(=O)(=O)c1c(C)noc1C | 3.59% |
| Cc1ccc(NC(=S)NC2CCCCC2)cc1S(=O)(=O)N(C)C | 2.18% |
| CNC(=S)Nc1cccc(C(=O)O)c1 | 21.9% |
| CC(=O)N1CC(=O)N(CC(=O)Nc2ccc(Br)cc2)C1=S | 11.9% |
| O=S(=O)(Nc1ccc(-c2ccc3nncn3n2)cc1)c1ccccc1F | 13.3% |
| N#CC1(NC(=O)COC(=O)C23CC4CC(CC(O)(C4)C2)C3)CCCCC1 | 6.23% |
| CN(C)CCN(Cc1ccccc1)C(=O)[C@H](Cc1ccccc1)N1C(=O)c2ccccc2C1=O | 0.101% |
| Brc1ccccc1OCCN1CCCC1 | 10% |
| CCN(CC)S(=O)(=O)c1ccc(NC(=O)C2COc3ccccc3O2)cc1 (stereo not shown) | -3.48% |
| CS(=O)(=O)c1ccc(Cl)c(NC(=O)CSc2nnc(-c3cccs3)n2N)c1 | 16.7% |
| COc1cc(C(=O)NC2CC(C)(C)Cc3c2cnn3-c2ccccc2)cc(OC)c1OC (stereo not shown) | 6.06% |
| Cc1ccc(S(=O)(=O)N(C)c2ccc(OCC(=O)Nc3nc(-c4ccccc4)cs3)cc2)cc1 | 14.3% |
| Oc1ccc(-n2cccc2/C=N/n2cnnc2)cc1 | 13.8% |
| Cc1cccc2c1-c1sc(C(=O)Nc3nccs3)cc1CO2 | 12.5% |
| Cc1cc(C)nc(SCCC(=O)Nc2ccccc2C)n1 | 20.5% |
| CC(=O)Nc1ccc(NC(=O)COc2ccc(S(=O)(=O)NC(C)c3ccccc3)cc2)cc1 (stereo not shown) | 17.5% |
| CCc1ccccc1Nc1nc2ccccc2n1C | 11.3% |

| SMILES | hERG current change (%, negative = inhibition) at 1uM |
| --- | --- |
| Cc1cc(NC(=O)CSc2nc3cc(Cl)ccc3c(=O)n2Cc2ccco2)no1 | 23.3% |
| CNc1cc(CSC)nc(SCc2ccc(Cl)cc2Cl)n1 | 9.71% |
| CCOC(=O)[C@@H]1[C@H]2COc3ccccc3[C@@H]2N2C(=O)N(c3ccc(F)cc3)C(=O)[C@@]12C | 14% |
| Cc1ccc2c(CC(=O)NCc3ccc4c(c3)OCO4)coc2c1 | 10.3% |
| CCN(CC)C(=O)CSc1nnc([C@@H](N)Cc2ccccc2)o1.Cl | 4.8% |
| O=C(c1ccco1)N1CCN(C(=O)c2cccs2)CC1 | 7.29% |
| CCn1c(-c2ccc3ncccc3c2)n[nH]c1=S | 1.67% |
| Clc1ccc(Cn2ncc3c(NCCN4CCOCC4)ncnc32)cc1 | 2.37% |
| CC(C)Sc1ccc(C(=O)Nc2ccc(F)cc2F)cn1 | 14.8% |
| Cc1cc(C)nc(SCC(=O)Nc2ncc3c(n2)CC(C)(C)CC3=O)n1 | 0.417% |
| C=CCNc1oc(COc2ccc(C)cc2)nc1C#N | 6.32% |
| COCCCn1c(=N)c(C(=O)NCC2CCCO2)cc2c(=O)n3cccc(C)c3nc21 (stereo not shown) | -74.8% |
| Cc1ccccc1-n1c(=O)cc(N2CC(C)OC(C)C2)[nH]c1=O (stereo not shown) | -8.03% |
| CC(=O)N1CCN=C1SCc1ccc(F)cc1 | 9.72% |
| CCOC(=O)C1CCCN(C(=O)CCn2nc(-c3ccccc3)ccc2=O)C1 (stereo not shown) | -0.738% |
| CCC1SC2=NC(C)=C(C(=O)OCCOC)C(/C=C/c3ccccc3OC)N2C1=O (stereo not shown) | 15.9% |
| O=[N+]([O-])c1ccc(S(=O)(=O)NCC(c2cccnc2)N2CCc3ccccc32)cc1 (stereo not shown) | -4.49% |
| C1CC2CN(c3nc4nonc4nc3N3CCSCC3)CCN2C1 (stereo not shown) | 13.4% |
| CCc1cc(C(=O)N2CCN(C(=O)c3ccco3)CC2)sc1C | 15.3% |
| O=C(O)c1ccc(Cl)c(S(=O)(=O)Nc2ccc3cn[nH]c3c2)c1 | -8.18% |
| C/C(=N\NC(=O)c1ccc(CN(C)S(=O)(=O)c2ccc(C)cc2)cc1)c1ccc(OC(F)F)cc1 | -2.71% |
| Cc1cc(NC(=O)CSc2ncnc3sc(C)c(C)c23)no1 | 11.7% |

| SMILES | hERG current change (%, negative = inhibition) at 1uM |
| --- | --- |
| Cc1ccc(N2CC(C(=O)N3CCC(C(=O)Nc4nncs4)CC3)CC2=O)cc1 (stereo not shown) | 14.9% |
| CC(C)CCn1c(=O)c2sccc2n2c(CCCC(=O)N3CCC(N4CCCCC4)CC3)nnc12 | 13.8% |
| CCOC(=O)C1=C(CC)Nc2ccccc2N=C1N | 2.47% |
| C=CCn1c(SCc2nc3ccccc3[nH]2)nnc1-c1ccc(OC)cc1 | 1.4% |
| C=CCNC(=O)c1ccc(-c2nc(-c3ccc(Cl)cc3Cl)cs2)cc1 | -3.24% |
| COc1ccc(NS(=O)(=O)c2cc(C(=O)N3CCN(C/C=C/c4ccccc4)CC3)ccc2C)cc1 | -8% |
| O=C(Oc1ccccc1N1CCOCC1)c1sccc1Br | 9.14% |
| O=C(O)c1cccc(NC(=O)c2cn(-c3ccccc3)nc2-c2cccc(Br)c2)c1 | 12.3% |
| CCN(CC(=O)N1CCN(Cc2ccccc2)CC1)S(=O)(=O)c1ccc(C)cc1 | -3.83% |
| COc1cc(C(=O)NCC(c2ccccc2)N(C)C)ccc1OCc1c(C)noc1C (stereo not shown) | 3.95% |
| CCC(C)(C)NC(=O)CN(Cc1ccc(OC)cc1)C(=O)CCC(=O)Nc1nccs1 | 2.96% |
| CN(C)/C=C/C(=O)c1ccc(-c2ccc(Cl)cc2Cl)o1 | 3.86% |
| Cc1[nH]c2ccc(C(=O)NCCCN3CCN(C)CC3)cc2c1C | 15.6% |
| CCCCOc1ccc(C(=O)NCC(=O)NCC(c2ccc(F)cc2)N2CCOCC2)cc1 (stereo not shown) | 9.34% |
| CCOC(=O)C1(CC)NC(c2ccc(N(C)C)cc2)C2C(=O)N(C)C(=O)C21 (stereo not shown) | 4.32% |
| CCOc1ccc2oc(C(=O)Nc3ccc4c(c3)OCO4)c(C)c2c1 | 12.1% |
| CCOc1ccc(S(=O)(=O)N2CCNC(=O)C2)cc1 | 12.3% |
| Cc1oc2c(C)c3oc(=O)c(CCC(=O)NCCCCCC(=O)O)c(C)c3cc2c1C | 25.2% |
| Cc1ccc2nc(N(CCCN(C)C)C(=O)c3ccc4ncsc4c3)sc2c1 | -8.93% |
| Cc1ccc(-n2c3c(c(=O)[nH]c2=O)C(NS(=O)(=O)c2ccc(C)cc2)(C(F)(F)F)C(=O)N3)cc1 (stereo not shown) | 7.64% |
| Cc1cc(O)cc2c1C(=O)/C(=C/c1ccco1)O2 | 20% |
| CCc1ccc(N2CCN(C(=O)N3CCOCC3)CC2)cc1 | 20.8% |
